# Results reported in PubChem BioAssay AID463173 (ICCB-Longwood Screening Facility, Harvard Medical School, 2010).
# In all, about 52,000 compounds went through this assay and about 1,700 (3.3%) were called active. No stated cut-off is given here; in the data, active means survival mostly below about 52% (no sharp cut-off); inactive means mostly above about 56%. This is one part of the list.
# Test system: Wild type
# Experiment: growth inhibition of S. aureus wild type versus tarO mutant, primary screen, teichoic acid synthesis inhibitors, RN4220, OD600 (AID 463173)
# Settings: S. aureus RN4220 wild type/DeltatarO growth, OD600, 18 h, hits give low values, screened at 18.75 µg/mL (by protocol)
row,Compound,survival
1,Cc1ccccc1Cn1c(SCc2ccc(C(=O)NC3CCCC3)cc2)nc2ccncc21,inactive: 93%
2,COc1ccccc1CNC(=O)CCNS(=O)(=O)c1cccc2nsnc12,inactive: 84%
3,Cc1nc2c(c(C)nn2-c2ccccc2)c(C)c1CCC(=O)NCCc1ccc(Cl)cc1,inactive: 99%
4,COc1cccc(NC(=O)N2CCN(C(=O)c3nsc4ccccc34)CC2)c1,inactive: 72%
5,COc1ccccc1N=c1scc(-c2ccc(S(=O)(=O)N3CCCC3)cc2)n1C,inactive: 85%
6,O=C(O)CCC(=O)Nc1nc2ccccc2s1,inactive: 104%
7,COc1cc(C2NC(=O)c3c(sc4c3CCN(C)C4)N2)ccc1OC(=O)c1ccccc1 (centres undefined),inactive: 80%
8,COc1ccc(NC(=O)N2CCN3CCCCC3C2)cc1OC (centres undefined),inactive: 95%
9,O=C(CCC(=O)N1CCc2ccccc21)N1CCc2ccccc21,inactive: 105%
10,CN(c1ccccc1)N1C(=O)c2cccc3cccc(c23)C1=O,inactive: 119%
11,Cc1ccc(Cn2ccn(Cc3cccc(C(F)(F)F)c3)c(=O)c2=O)cc1,inactive: 110%
12,COc1cccc(NC(=O)CSc2nc3c([nH]c4ccccc43)c(=O)n2-c2cccc(Cl)c2)c1,inactive: 68%
13,C=CCOc1ccc(C2c3c(oc4ccc(C)cc4c3=O)C(=O)N2CCCN2CCOCC2)cc1 (centres undefined),inactive: 74%
14,N#C/C(=C\C1CC=CCC1)c1nc2ccccc2c(=O)[nH]1 (centres undefined),inactive: 109%
15,Cc1ccc(-c2ccc(=O)n(CC(=O)Nc3ccc(C(C)C)cc3)n2)cc1,inactive: 99%
16,CCOC(=O)c1ccc(NC(=O)CSc2nc(C)c(Cc3ccccc3)c(=O)[nH]2)cc1,inactive: 80%
17,Cc1ccc(-n2nc(C)c3c(C)cc(=O)n(CC(=O)NC(C)C)c32)cc1,inactive: 119%
18,CCc1cccc(CC)c1N(COC)C(=O)Cn1c(C)nc2ccccc21,inactive: 69%
19,CCN(CC)CCOC(=O)c1ccc(NC(=O)CSc2cc(=O)n(CC)c3ccccc23)cc1,inactive: 137%
20,COc1ccccc1NC(=O)c1c(C)cc(C)nc1SCC(=O)Nc1cccc(C)c1,inactive: 88%
21,COCCNC(=O)CCn1c(=O)c2cc(OC)c(OC)cc2n(CC(=O)Nc2ccccc2OC)c1=O,inactive: 89%
22,O=C(Nc1ccc(F)c(Cl)c1)C1Cc2ccccc2CN1S(=O)(=O)c1ccc(F)cc1 (centres undefined),inactive: 77%
23,CCc1nn(CC(=O)Nc2ccc(C)cc2C)c(=O)c2cc3sccc3n12,inactive: 90%

row,Compound,survival
1,COc1ccc(Nc2ncnc3onc(-c4ccc(Cl)cc4)c23)cc1Cl,inactive: 122%
2,O=C(NCc1ccccc1)c1ccc(NC(=O)N2CCSc3ncccc32)cc1,inactive: 119%
3,COc1cc(OC)c(NC(=O)c2cnn(-c3cccc(Cl)c3C)c2C2CCN(C(=O)OC(C)(C)C)CC2)cc1Cl,inactive: 53%
4,COc1ccc(-n2cc(-c3ccccc3)c3c(NCc4cccc(Cl)c4)ncnc32)cc1,inactive: 85%
5,Cc1ccc(NC(=O)c2cn(-c3ccccc3)nc2-c2ccccc2)cc1,inactive: 110%
6,CCCCn1c(SCC(=O)Nc2cccc(OC)c2)nc2ccsc2c1=O,inactive: 159%
7,Cc1ccc(C2=NN(CC(=O)NC(C)c3ccccc3)C(=O)CC2)cc1 (centres undefined),inactive: 73%
8,COc1ccc(-c2cn3nc(N4CCC(C(=O)NCc5ccc(F)cc5)CC4)sc3n2)cc1,inactive: 78%
9,COc1ccc(NC(=O)C2CCC(CNS(=O)(=O)c3csc(C(N)=O)c3)CC2)cc1 (centres undefined),inactive: 85%
10,CC(C)c1ccc(Nc2c(-c3ccc(N4CCOCC4)cc3)nc3ncccn23)cc1,inactive: 86%
11,CCOC(=O)c1c(NC(=O)COc2cccc(C)c2C)sc2c1CCCCC2,inactive: 73%
12,Cc1ccc(CSc2oc(-c3ccco3)nc2S(=O)(=O)c2ccc(Cl)cc2)cc1,inactive: 74%
13,CCOC(=O)c1cccc(NC(=O)c2cc(S(=O)(=O)N3CCCC3)cn2C)c1,inactive: 78%
14,COc1ccc(-c2onc(C)c2C)cc1S(=O)(=O)Nc1ccc(OC(F)(F)F)cc1,inactive: 63%
15,COC(=O)c1cc2sc(C)cc2n1Cc1ccccc1,inactive: 83%
16,CCCOC(=O)c1ccc(NC(=O)Cn2nnc3sc4c(c3c2=O)CCC(C(C)(C)C)C4)cc1 (centres undefined),inactive: 91%
17,Cc1ccc(CNC(=O)CSc2ccc(-c3sc(-c4ccccc4)nc3C)nn2)cc1,inactive: 122%
18,CCOC(=O)CNC(=O)c1cc2c(=O)n(CC)c3ccccc3c2s1,inactive: 88%
19,COc1ccc(NC(=O)c2ccco2)cc1NC(=O)C(C)Oc1ccc(Cl)cc1Cl (centres undefined),active: 6%
20,CCOc1ccc(CCNC(=O)CN2C(=O)c3cccnc3Oc3ccc(C)cc32)cc1OCC,inactive: 80%
21,COc1cccc(CNS(=O)(=O)c2c(C)nc3scc(C)n3c2=O)c1,inactive: 131%
22,CC(=O)c1cc(-c2ccc(F)cc2)n(CC(=O)NC2CCCCCC2)c1C,inactive: 81%
23,CCCOc1ccc(/C=C/C(=O)Nc2sc3c(c2C(=O)OCC)CCC(C)C3)cc1OC (centres undefined),inactive: 66%

row,Compound,survival
1,O=S(=O)(c1ccc(Br)cc1)c1nc(-c2ccco2)oc1SCc1ccccc1F,inactive: 65%
2,O=C(Nc1cccc(C(F)(F)F)c1)c1cc2nc(-c3ccccc3)cc(C(F)(F)F)n2n1,inactive: 71%
3,CCCOc1ccc(-c2cccc(NS(=O)(=O)c3cccs3)c2)nn1,inactive: 71%
4,O=C(Nc1ccc(NC(=O)c2cccs2)cc1)c1cccs1,inactive: 113%
5,CCOc1ccccc1CNC(=O)CCCn1c(=O)c2cccn2c2cccnc21,inactive: 109%
6,CCN1/C(=C(\C#N)c2nc(C#N)c(C#N)nc2N2CCOCC2)Nc2ccccc21,inactive: 107%
7,COc1ccc(-c2cccc(NS(=O)(=O)c3cccs3)c2)nn1,inactive: 73%
8,Clc1ccc(N2CCN(Cc3nnc(-c4ccc5c(c4)OCO5)o3)CC2)cc1,inactive: 83%
9,O=C1CSC(N(c2ccccc2)c2ccccc2)=N1,inactive: 99%
10,COc1ccc(NC(=O)CC2Nc3cccc4cccc(c34)NC2=O)cc1 (centres undefined),inactive: 67%
11,Cn1nnnc1SCC(=O)N1CCCc2ccccc21,inactive: 106%
12,COc1ccc(NC(=O)C2=C(C)Nc3c(C(=O)Nc4ccc(C)cc4)cnn3C2c2cccc(Cl)c2)cc1 (centres undefined),inactive: 73%
13,CCCCN(CC)C(=O)c1c[nH]c2ccc(S(=O)(=O)Nc3cccc(OC)c3)cc2c1=O,inactive: 81%
14,CC(=O)N1c2ccccc2CC1C(=O)N1CCN(c2cccc(C)c2C)CC1 (centres undefined),inactive: 73%
15,Cc1oc2ccc(O)c(CN3CCOCC3)c2c1C(=O)Nc1ccc(C(C)C)cc1,inactive: 110%
16,Cc1ccc2onc(CC(=O)N3CCN(c4ccccc4F)CC3)c2c1,inactive: 96%
17,COc1ccc(-c2cc(C)no2)cc1S(=O)(=O)N1CCN(c2ccc(C(C)=O)cc2)CC1,inactive: 77%
18,O=C(CCCn1c(=O)c2cccn2c2ccccc21)Nc1cccc(Cl)c1,inactive: 42%
19,Clc1ccccc1CSc1nncn2c1cc1occc12,inactive: 86%
20,Cc1ccc2oc(-c3cccc(NC(=O)c4cccc5c(Br)cccc45)c3)nc2c1,inactive: 161%
21,CCOC(=O)Cn1c2[n+](c3ccccc31)CC(O)CS2 (centres undefined),inactive: 102%
22,COc1ccc(C(=O)NCC(c2cccnc2)N2CCN(c3ccccc3F)CC2)cc1OC (centres undefined),inactive: 83%
23,COC(=O)c1c(C)sc(-c2c(-c3ccc(F)cc3)[nH]c3[nH]c(=O)[nH]c(=O)c23)c1O,inactive: 115%

row,Compound,survival
1,Cc1ccc(NC(=O)C2CCN(S(=O)(=O)c3cccs3)CC2)cc1,inactive: 74%
2,CCCc1nn2c(=O)cc(COC(=O)c3ccccc3NC(=O)C3CCCCC3)nc2s1,inactive: 73%
3,O=C(CCCC(=O)Nc1nccs1)Nc1nccs1,inactive: 111%
4,CCC(=O)N1CCc2cc(S(=O)(=O)CCC(=O)NCc3ccccc3Cl)ccc21,inactive: 86%
5,COc1ccc(CCNC(=O)CCc2c(C)nc3c(-c4ccc(F)cc4)c(C)nn3c2C)cc1OC,inactive: 137%
6,Cc1ccc(-n2c(SCc3nc(-c4ccc(Cl)cc4)no3)nnc2-c2ccncc2)cc1,inactive: 50%
7,CCc1ccc(NC(=O)CN(c2ccc(C)cc2)S(=O)(=O)c2c(C)nn(C)c2C)cc1,inactive: 76%
8,COCCCNC(=O)N1CCN(c2nnc(C)c3c(C)n(-c4ccc(Cl)cc4)nc23)CC1,inactive: 72%
9,CC1=C(C(=O)OC2CCCCCC2)C(c2ccccc2Cl)CC(=O)N1 (centres undefined),inactive: 80%
10,COc1ccc(Cn2c(C(=O)O)c(CNCCc3cccs3)c3ccc(OC)cc32)cc1,inactive: 87%
11,CCOc1cccc(CC(=O)N2CCc3c([nH]c4ccccc34)C2c2ccc(OC)cc2)c1OCC (centres undefined),inactive: 88%
12,Cc1ccccc1CN1C(=O)c2ccccc2S(=O)c2ccc(C(=O)NCc3ccccc3)cc21 (centres undefined),inactive: 77%
13,Cc1oc2ncn(C)c(=O)c2c1C(=O)N1CCN(c2ccc(Cl)cc2)CC1,inactive: 55%
14,COc1cccc(CNCCCSc2nnnn2C)c1,inactive: 107%
15,Cc1nn(C)c2c1c(-c1ccccc1)cc(=O)n2Cc1c(F)cccc1Cl,active: -6%
16,O=C(c1cc(-c2ccc(Cl)cc2)on1)N(Cc1ccc(F)cc1)Cc1ccco1,inactive: 77%
17,Cc1ccccc1Nc1c(-c2ccccc2O)nc2sccn12,inactive: 90%
18,O=C1c2oc3ccccc3c(=O)c2C(c2cccc(O)c2)N1Cc1ccc(F)cc1 (centres undefined),inactive: 82%
19,CCOc1ccc(N(CC(=O)Nc2ccc3c(c2)OCO3)S(=O)(=O)c2ccccc2)cc1,inactive: 93%
20,CC(C)Sc1ncc(Cl)c(C(=O)Nc2c(C(=O)Nc3ccccc3)oc3ccccc23)n1,inactive: 94%
